Assay results published in publication PMC4336329 (PLoS ONE, 2015).
Out of some 310,000 compounds screened, about 2,200 (0.71%) showed an effect of 50% or more. Effects have a minus sign here. Some of the results follow.

Each molecule was assayed against human ether-à-go-go-related gene (hERG) potassium channel (human, UniProt Q12809) (assay: primary screen, population patch clamp on CHO cells stably expressing hERG).
human ether-à-go-go-related gene (hERG) potassium channel, sequence (Q12809 whole entry, looked up): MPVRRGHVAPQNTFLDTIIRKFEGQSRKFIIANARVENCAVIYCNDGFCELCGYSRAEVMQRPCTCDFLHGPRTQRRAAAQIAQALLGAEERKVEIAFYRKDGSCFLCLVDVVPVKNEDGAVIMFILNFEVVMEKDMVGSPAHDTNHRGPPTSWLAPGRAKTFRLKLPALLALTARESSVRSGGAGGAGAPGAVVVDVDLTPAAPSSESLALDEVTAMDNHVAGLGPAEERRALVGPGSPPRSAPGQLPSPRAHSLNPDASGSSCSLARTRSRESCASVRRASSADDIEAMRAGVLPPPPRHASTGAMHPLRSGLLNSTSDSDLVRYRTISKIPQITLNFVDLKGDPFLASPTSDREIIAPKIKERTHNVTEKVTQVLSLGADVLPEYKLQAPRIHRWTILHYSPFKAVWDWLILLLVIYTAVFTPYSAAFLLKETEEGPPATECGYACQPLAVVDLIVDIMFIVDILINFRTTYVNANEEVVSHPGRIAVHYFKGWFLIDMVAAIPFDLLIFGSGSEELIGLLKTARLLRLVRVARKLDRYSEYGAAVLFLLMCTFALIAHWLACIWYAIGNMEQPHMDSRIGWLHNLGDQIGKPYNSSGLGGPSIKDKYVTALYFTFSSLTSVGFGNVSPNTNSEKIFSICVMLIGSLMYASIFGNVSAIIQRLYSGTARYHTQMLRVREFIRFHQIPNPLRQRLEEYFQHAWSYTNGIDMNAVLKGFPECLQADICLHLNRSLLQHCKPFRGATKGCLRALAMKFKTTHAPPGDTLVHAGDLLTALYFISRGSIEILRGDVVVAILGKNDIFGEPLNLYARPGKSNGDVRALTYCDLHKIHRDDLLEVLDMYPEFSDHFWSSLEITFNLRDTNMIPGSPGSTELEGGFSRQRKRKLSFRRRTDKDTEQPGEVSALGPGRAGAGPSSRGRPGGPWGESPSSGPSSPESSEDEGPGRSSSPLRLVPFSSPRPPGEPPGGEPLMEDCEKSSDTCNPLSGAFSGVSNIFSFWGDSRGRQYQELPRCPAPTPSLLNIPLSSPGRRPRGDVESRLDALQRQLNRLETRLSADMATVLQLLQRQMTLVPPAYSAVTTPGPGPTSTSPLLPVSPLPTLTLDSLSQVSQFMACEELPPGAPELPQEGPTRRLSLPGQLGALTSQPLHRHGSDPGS

SMILES | hERG current change (%, negative = inhibition) at 1uM [%]
O=C(N/N=C/c1ccc(-c2ccccc2)o1)c1ccccc1O | 8.54
O=C1C(c2c(O)[nH]c3ccccc23)=Nc2ccccc21 | 11.1
CC1CCCN(C(=O)c2cc(N3C(=O)C4C5CCC(C5)C4C3=O)ccc2Cl)C1 (stereo not shown) | 16.7
C=CCn1c(SCC(=O)c2c(N)n(C)c(=O)n(C)c2=O)nnc1-c1ccncc1 | 9.69
CCOc1c(Cl)cc(CNCc2ccccn2)cc1OC.Cl | -1.38
COc1ccccc1C1CC(c2cccc(NS(C)(=O)=O)c2)=NN1S(=O)(=O)c1ccccc1 (stereo not shown) | 9.64
Cn1c(SCC(=O)NNC(=S)Nc2ccccc2)nnc1-c1ccccc1 | 10.1
COc1ccc(N(CC(=O)NCCSCc2cccc(Cl)c2)S(C)(=O)=O)cc1 | 7.41
O=C(Nc1nnc(S(=O)(=O)N2CCOCC2)s1)c1ccccc1Br | 6.23
CSC(=O)NC(=O)NC(=O)c1ccc([N+](=O)[O-])cc1 | 11.4
COC(=O)C1=C(C)NC(=O)NC1c1ccc(-c2ccccc2Cl)o1 (stereo not shown) | 13.1
CCOc1ccc(OCCCC(=O)NC2=NCCS2)cc1 | 13.6
CCCc1cc(-c2nc(N)ncc2-c2csc(C)n2)c(O)cc1OC | 9.55
COc1ccc(CCNC(=O)c2nnn(-c3cc(C)cc(C)c3)c2N)cc1OC | 5.59
COc1cccc(C(C(=O)NC(C)(C)C)N(C(=O)CCC(=O)Nc2cc(C)on2)C2CC2)c1OC (stereo not shown) | 17.1
Cc1ccc(NC(=S)NNC(=O)c2nnn(-c3ccccc3)c2C)cc1 | 6.61
CN(C)CCCNCC(=O)c1c(-c2ccccc2)n(C)c2ccccc12.O=C(O)C(=O)O | 0.676
CC(=O)c1cccc(NC(=O)CCCNC(=O)c2ccc(Cl)cc2)c1 | 10.2
COc1ccc(Cc2nc3ccc(C(=O)NC(C)C)cc3o2)cc1 | 9.31
CC(C)(C)C(=O)N=C1SC2CS(=O)(=O)CC2N1c1ccc2c(c1)OCO2 (stereo not shown) | -5.69
O=C(NCc1ccc(F)cc1)C1CCCN(c2cnccn2)C1 (stereo not shown) | -22.7
COc1ccc(CNC(=O)CN2C(=O)NC(C)(c3cccc(Br)c3)C2=O)cc1 (stereo not shown) | 0.983
O=C(N1CCN(c2ccccc2F)CC1)C1(c2cccs2)CCOCC1 | 9.24
COC(=O)c1ccc(NC(=O)CC[NH+]2CCCCC2)cc1.[Cl-] | -2.55
COC(=O)[C@@]12CCCCN1[C@H](c1ccc(-c3ccc(F)cc3)cc1)[C@@H]1C(=O)N(C)C(=O)[C@@H]12.O=C(O)C(F)(F)F | -9.26
Cn1c(CN2CCCC2)nc2cc(NC(=O)Nc3ccccc3)ccc21 | 7.65
COc1ccc(C2C(C(=O)c3sc(C)nc3C)=C(O)C(=O)N2CCN(C)C)cc1OC (stereo not shown) | 17.4
CCC(OC(=O)c1cc2sccc2n1C)C(=O)NCc1ccco1 (stereo not shown) | -5.19

SMILES | hERG current change (%, negative = inhibition) at 1uM [%]
COc1ccc(CCNC(=O)CCC(=O)n2ncc3cc(C)ccc32)cc1OC | 6.89
CCOC(=O)c1oc2cc(O)ccc2c(=O)c1-c1ccccc1OC | 1.12
COc1ccc(NC(=O)c2ccc(COc3ccccc3Br)o2)cc1OC | 22.3
C/C(=N\NC(=O)c1nonc1N)c1cccs1 | 3.33
O=C(O)CCC(=O)N1CCN(c2ncccc2C(F)(F)F)CC1 | 11.6
COc1ccc(C(=O)NC(=S)Nc2ccc3[nH]c(=O)[nH]c3c2)c(OC)c1 | 16.5
COc1ccc(C(=O)NC(CC(C)C)C(=O)O)cc1 (stereo not shown) | 6.42
CCOc1ccc2nc(NC(=O)c3ccc(OC)c(S(=O)(=O)N4CCOCC4)c3)sc2c1 | -7.15
Cc1ccc([N+](=O)[O-])cc1S(=O)(=O)Nc1ccc(-c2ccc(N3CCCC3)nn2)cc1 | 8.17
O=C(NC(O)C(=O)c1ccccc1)c1ccc(F)cc1 (stereo not shown) | 7.88
CCCNC(=O)c1ccccc1NC(=O)C1=CSCCO1 | 17.7
O=[N+]([O-])c1ccccc1N/N=C\c1ccccc1Cl | 17
Cc1onc(-c2ccccc2)c1C(=O)N1CCN(S(=O)(=O)c2ccc(Cl)cc2)CC1 | -1.88
Cc1ccccc1C(=O)Nc1ccnn1C1CCN(Cc2cnn(C(C)C)c2)CC1 | -27.3
C=CCNCCCCOc1c(Cl)cc(C)cc1Br.O=C(O)C(=O)O | 3.62
CCCOc1ccc(-c2cn3ccccc3n2)cc1[N+](=O)[O-] | 1.87
O=C(CN(Cc1ccc2c(c1)OCO2)C(=O)CNS(=O)(=O)c1ccccc1)NCC1CCCO1 (stereo not shown) | 6.06
Cc1ccc(NC(=O)CSc2ccc(C(N)=O)cc2[N+](=O)[O-])cc1 | 10.2
O=C(NC1CCCCC1)C1CCN(S(=O)(=O)c2cccc3nonc23)CC1 | 11
Cc1cc(C)n(-c2ccc(-n3ccnc3)nn2)n1 | 1.33
O=C(c1ccc(Cl)c(Cl)c1)N1CCN(Cc2ccc3c(c2)OCO3)CC1 | 0.862
CN1CCN(CC(=O)Nc2c(C(=O)C3CC3)oc3ccccc23)CC1 | -16.9
COc1cc(C(c2sc3nc(C)nn3c2O)N2CC(C)CC(C)C2)cc(OC)c1OC (stereo not shown) | 14.7
Cc1cc(C(=O)CSc2n[nH]c(N)n2)c(C)n1-c1ccc(F)cc1 | 5.48
Cc1ccc[n+](CC(=O)c2ccc(Br)cc2)c1C.[Br-] | 10.7
CCOC(=O)C(C)Sc1nc(-c2ccccc2)nc2ccccc12 (stereo not shown) | 15.9
Cc1ccccc1OCC(=O)Nc1ccc2c(c1)COC2=O | 5.94
